In PubChem BioAssay AID488969 (Vanderbilt High Throughput Screening Facility, 2010) one finds z-score data, which are given here for 70 compounds.

Over roughly 110,000 compounds, “z-score” has its median near -0.1; the highest 2% begin near 2. Some of the results follow. The source made the active and inactive calls.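 How the source made its calls: active means z-score in the third read window above 3 or below -3; inactive means the rest.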

This assay deals with Metabotropic glutamate receptor 8 (Rattus norvegicus) (UniProt P70579). In words: rat mGluR8 modulators via GIRK flux, primary screen, cell-based, thallium flux, HTS (AID 488969). The settings on record: HEK293 rat mGluR8, GIRK (G protein-gated inwardly rectifying potassium channel) thallium flux, FluoZin2; at 10 µM; stronger effect = higher value; submaximal glutamate (EC20) added with thallium.
UniProt P70579, sequence (P70579 whole entry, looked up): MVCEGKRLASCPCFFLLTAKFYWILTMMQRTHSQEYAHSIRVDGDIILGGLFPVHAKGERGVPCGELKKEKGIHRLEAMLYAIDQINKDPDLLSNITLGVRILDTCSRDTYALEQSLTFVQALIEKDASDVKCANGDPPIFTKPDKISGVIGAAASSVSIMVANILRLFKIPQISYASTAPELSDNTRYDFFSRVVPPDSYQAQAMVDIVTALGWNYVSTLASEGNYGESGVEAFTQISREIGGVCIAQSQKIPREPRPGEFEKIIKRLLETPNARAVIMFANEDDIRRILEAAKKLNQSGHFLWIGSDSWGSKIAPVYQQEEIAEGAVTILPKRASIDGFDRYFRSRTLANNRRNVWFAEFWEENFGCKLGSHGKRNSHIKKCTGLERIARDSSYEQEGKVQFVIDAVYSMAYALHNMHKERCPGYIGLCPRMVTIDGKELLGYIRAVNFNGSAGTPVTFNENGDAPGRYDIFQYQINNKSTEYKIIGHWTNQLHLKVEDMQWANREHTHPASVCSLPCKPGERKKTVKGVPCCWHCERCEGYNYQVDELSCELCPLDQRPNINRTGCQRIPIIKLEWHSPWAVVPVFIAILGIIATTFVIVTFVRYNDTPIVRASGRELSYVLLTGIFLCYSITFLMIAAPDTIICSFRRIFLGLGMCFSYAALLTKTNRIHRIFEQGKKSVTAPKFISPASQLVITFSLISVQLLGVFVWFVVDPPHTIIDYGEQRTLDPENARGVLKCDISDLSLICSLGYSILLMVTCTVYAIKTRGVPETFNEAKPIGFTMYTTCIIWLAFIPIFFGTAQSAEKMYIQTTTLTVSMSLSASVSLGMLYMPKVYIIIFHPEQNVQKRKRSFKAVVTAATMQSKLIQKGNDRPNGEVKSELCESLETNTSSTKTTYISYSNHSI
On to `CC1=Nc2ccccc2/C1=C\c1nc(-c2ccc(F)cc2)oc1O`, for which the z-score is 0.833.
In turn, `CC(C)c1ccc(NC(=O)CN(Cc2ccccc2)S(C)(=O)=O)cc1` showed a z-score of 1.06.
On to `O=C(Nc1nc(-c2ccccn2)cs1)c1ncc(Cl)c(Cl)c1Cl`, for which the z-score was found to be 0.59.
`Cc1sc(-n2c(C)cc(/C=N/n3cnnc3)c2C)c(C#N)c1C` had a z-score of -0.141.
The figure for `COC(=O)C1=C(C)NC2=C(C(=O)CCC2)C1c1cccs1` (stereo not given) is -0.223.
The figure for `CC(=O)Nc1ccc(SCC(=O)c2cc(C)n(-c3ccccc3F)c2C)cc1` is active: 4.45; for `CCOC(=O)C1CN(C(C)(C)C)C(=O)C1=O` (stereo not given) it is -0.258; for `O=c1ccc(Cc2ccccn2)n[nH]1` it is -0.0114.
`COc1ccccc1CN1C(=O)[C@@H]2C(CC(N)=O)NC3(C(=O)Nc4c3ccc(Cl)c4C)[C@@H]2C1=O` (stereo not given in full): the z-score is -0.0132.
On to `CCn1c(SCC(=O)Nc2sc(C)c(C)c2C#N)nnc1C(C)C`, for which the z-score is -1.09.
`CCCCCn1c(SC(C)C(C)=O)nc2c1c(=O)[nH]c(=O)n2C` (stereo not given) gave a z-score of -0.525.
Then `N#Cc1nc(COc2ccccc2)oc1NCCN1CCOCC1`, with -0.209.
The compound `CCC(=O)Nc1ccc(C(=O)CSc2nnc(-c3ccccc3F)n2C2CC2)cc1` showed a z-score of -0.261.
Then `Nc1ccc2nc3n(c(=O)c2c1)CCC3`, with -0.342; and `COc1ccccc1NCc1ccc([N+](=O)[O-])s1`, with -0.113; and `O=C1C2CCCN2c2ccc(S(=O)(=O)N3CCOCC3)cc2N1Cc1cccc(C(F)(F)F)c1` (stereo not given), with -0.398.
`O=C(CSCCSCC(=O)c1ccco1)c1ccco1` returned a z-score of 0.321.
Then `CSc1c(SCc2ccccc2)cnn(-c2ccccc2)c1=O`, with -1.29; and `Cn1nnc2cc(NC(=O)N3CC4(C)CC3CC(C)(C)C4)ccc21` (stereo not given), with 0.255.
For `COc1ccccc1N1CCN(C(=O)CSc2nc3ccccc3[nH]2)CC1`, the z-score was 0.112.
`Cc1ccc(S(=O)(=O)NNC(=O)c2sccc2-n2cccc2)cc1` had a z-score of -0.0772.
Then `COc1ccc(C2=NN(CCC(=O)NCc3ccc4c(c3)OCO4)C(=O)CC2)cc1`, with -0.312.
Consider `CCOC(=O)c1c(C)oc(NC(=O)COc2ccc(Cl)cc2C)c1C#N`, for which the z-score was -0.342.
The compound `O=C(NC1=NCCS1)c1cccc(NC(=O)c2ccco2)c1` returned a z-score of 0.0493.
Compound `COc1ccc(O)c(/C=N\NC(=O)CCn2nnc3ccccc32)c1` showed a z-score of -0.125.
The figure for `COc1ccc(-c2cc(C(=O)N3CCN(C(c4ccccc4)c4ccccc4)CC3)no2)cc1` is -0.193.
Then `CCCCOc1cccc(C(=O)NC(=S)Nc2cccc(NC(=O)c3ccccc3Cl)c2)c1`, with -0.0458; and `COc1ccc(N(Cc2cc3cccc(C)c3[nH]c2=O)S(C)(=O)=O)cc1`, with 1.91.
Then `CCc1nnc2n1N=C(c1ccc(-c3ccc(Cl)cc3Cl)o1)CS2`, with 0.592.
As for `O=C(CN1CCCCC1)N1c2ccccc2CCc2ccccc21`, the z-score was -0.0448.
`O=C(CSc1nnc(-c2ccccc2)n1-c1ccc(Cl)cc1)N/N=C/c1ccco1` showed a z-score of -0.556.
Turning to `CCCCCCC12CCC(C(=O)O)(CC1)CC2`, the z-score came out at 1.87.
In turn, `COCCNC(=S)Nc1ccc2nc(N3CCCC3)cc(C)c2c1` came in with a z-score of -0.039.
The figure for `COCCCn1c(SCC(=O)OC2CCCCC2)nnc1-c1ccco1` is 0.0242; for `O=C(C1CCC(C(=O)N2CCCC2)CC1)N1CCCC1` (stereo not given) it is -1.33; for `COc1cc2[nH]c(=O)n(Cc3ccc(C(=O)NCCCN4CCC(C)CC4)cc3)c(=O)c2cc1OC` it is -0.618.
Then `COc1ccccc1Nc1ncnc2c1oc1ccccc12`, with -1.15.
As to `COC(=O)[C@H](Cc1ccccc1)NC(=O)NCc1cccs1`, the z-score was -0.162.
With `CCOCCn1c(SCc2ccc(C)cc2)nc2c1c(=O)[nH]c(=O)n2C`, the z-score was -0.31.
Take `CC1CC(Nc2ccccc2)c2ccccc2N1C(=O)c1cccnc1` (stereo not given): the z-score is -0.223.
Take `Cc1ccc(NC(=O)c2ccc(CSc3nnnn3C)cc2)cc1`: the z-score was -0.174.
In turn, `COC(=O)c1ccc(CSc2nc3c(cnn3-c3ccc(C)c(C)c3)c(=O)[nH]2)o1` gave a z-score of -0.0305.
The figure for `Cc1cccc(NC(=O)CSc2cc(C(=O)c3nccn3C)c3ccccc3n2)c1` is 0.179; for `Cc1ccsc1/C=N/NC(=O)c1ccccn1` it is -0.122; for `CSCCC(NS(=O)(=O)c1ccc(Cl)cc1)C(=O)OCC(=O)NC1CC1` (stereo not given) it is -0.00636.
Regarding `CCN(CC#CCC1(O)c2ccccc2-c2ccccc21)C(C)C`, the z-score is -0.295.
Take `COc1ccccc1NS(=O)(=O)c1cccc(N2CC(O)=C(c3ccccc3)C2=N)c1`: the z-score is -0.244.
With `CCOC(=O)Nc1ccc2c(c1)nc(CN1CCOCC1)n2C`, the z-score is 0.195.
The figure for `COc1ccc(Nc2nc(-c3cccc([N+](=O)[O-])c3)nc3ccccc23)cc1` is active: -3.34.
`CC(C)CN(C(=O)COC(=O)c1ccc2c(c1)NC(=O)CS2)C1CCS(=O)(=O)C1` (stereo not given): the z-score came out at 0.393.
Compound `COC(=O)C(=NNc1c(C)n(C)n(-c2ccccc2)c1=O)C(=O)OC` registered a z-score of -0.184.
The figure for `CCCC1(C)Nc2ccccc2-c2nc3ccccc3n21` (stereo not given) is -0.758.
The figure for `COc1cccc(N(CC(=O)N2CCc3ccccc3C2)S(C)(=O)=O)c1` is -0.256; for `O=C(NCCCN1CCN(c2cccc(Cl)c2)CC1)c1nc(-c2ccncc2)no1` it is -0.287.
Then `CC(=O)c1cc(-c2ccccc2)n(CCC(=O)NC2CCC(C)CC2)c1C` (stereo not given), with 0.0693.
For the compound `N#C/C(=C\c1ccc(Cl)cc1)c1n[nH]c(Cn2cncn2)n1`, the z-score was -1.21.
Then `O=c1c2c(n3cnnc3n1-c1ccccc1)-c1ccccc1CC21CCCCC1`, with -0.501.
As for `Cc1cccc(Nc2nc(-c3ccccn3)cs2)n1`, the z-score was 0.446.
Then `CCOC(=O)C1CCN(S(=O)(=O)c2cccc(-c3cn4cccc(C)c4n3)c2)CC1`, with -0.994; and `COc1cccc(C2c3c(-c4cc(Cl)c(C)cc4O)n[nH]c3C(=O)N2Cc2cccnc2)c1` (stereo not given), with -0.418; and `O=C(CSc1nncn1-c1ccccc1)Nc1cccc(S(=O)(=O)N2CCCCC2)c1`, with 0.383.
The figure for `CN1C(=O)CC(N2CCC(C(N)=O)CC2)C1=O` (stereo not given) is 0.151.
The figure for `Cc1ccc2c(c1)NC(=O)C(CC(=O)NCCN(C)C)O2` (stereo not given) is -0.679; for `Cc1ccc(S(=O)(=O)/C(C#N)=C/c2ccccc2OCc2ccccc2)cc1` it is -0.136.
Compound `COc1ccc2nc(SCc3cccc(C)c3)nc(C)c2c1` gave a z-score of -0.294.
`O=C(/C=C/N1CCOCC1)c1cc2ccccc2o1`: the z-score was found to be 0.525.
In turn, `COc1ccc(/C=C2\SC(c3ccc(C)cc3)=NC2=O)cc1OC` returned a z-score of -1.87.
Then `O=C(Nc1nnc(CC(=O)N2CCOCC2)s1)C1COc2ccccc2O1` (stereo not given), with 0.28; and `O=C(Nc1cccc(Cl)c1)N1CCN(Cc2ccccc2)CC1`, with -0.785.
The figure for `O=C1CCCN1CCCNc1ccc(S(=O)(=O)N2CCCCC2)cn1` is 0.742.
